Test results published in the supplement of paper PMC7826260.
The list shows a part of the results. Viral Rep nickase domains cut single-stranded DNA in vitro for 1 h at 37 °C with 3 µM enzyme; only the middle of the 90-letter strands is printed. The score is log2 (uncut reads / reads without enzyme); uncut sequences lie near 0, cut ones below; no hit call is given. Reads are scaled to the total; where an enzyme cuts many sequences, the uncut ones exceed 0.

What was measured:
Assay in all cases: uncleaved DNA left, log2 of reads against the no-enzyme library (log2 ratio); higher = less cleavage (more negative = more Rep cleavage of the k-mer); sequences stand for … in CTCGTCCG…ACCGGAGA
[1] = tested on: T1, Rep nickase domain of Muscovy duck circovirus
T1 sequence (residues 1-111, tag not shown): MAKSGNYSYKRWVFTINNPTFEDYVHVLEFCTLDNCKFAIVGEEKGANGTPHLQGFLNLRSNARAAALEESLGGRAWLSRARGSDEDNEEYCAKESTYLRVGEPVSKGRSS
Description: (§1)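 A pool of 90-nt single-stranded DNAs with seven random bases just before the constant AC of the nick site (name = the seven bases) was cut by 3 µM recombinant His6-SUMO-tagged Rep nickase domain (300 nM DNA, 50 mM HEPES pH 8.0, 50 mM NaCl, 1 mM MnCl2, 1 h, 37 °C, three replicates). Uncut DNA was amplified and sequenced.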

[2] = tested on: T2, Rep nickase domain of banana bunchy top virus
T2 sequence (residues 1-94, tag not shown): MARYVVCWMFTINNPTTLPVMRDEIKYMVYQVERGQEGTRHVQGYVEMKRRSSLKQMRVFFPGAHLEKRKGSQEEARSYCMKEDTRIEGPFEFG
Description: as §1

[3] = tested on: T3, Rep nickase domain of cabbage leaf curl virus
T3 sequence (residues 1-116, tag not shown): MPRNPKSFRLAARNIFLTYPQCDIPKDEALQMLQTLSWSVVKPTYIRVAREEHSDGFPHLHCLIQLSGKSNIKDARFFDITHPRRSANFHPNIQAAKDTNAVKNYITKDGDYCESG
Description: as §1

[4] = tested on: T4, Rep nickase domain of chickpea chlorotic dwarf virus
T4 sequence (residues 1-124, tag not shown): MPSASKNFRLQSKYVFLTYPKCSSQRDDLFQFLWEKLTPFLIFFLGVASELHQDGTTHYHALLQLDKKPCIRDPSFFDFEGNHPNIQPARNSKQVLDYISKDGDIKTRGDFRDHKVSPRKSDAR
Description: as §1

[5] = tested on: T5, Rep nickase domain of faba bean necrotic yellows virus
T5 sequence (residues 1-98, tag not shown): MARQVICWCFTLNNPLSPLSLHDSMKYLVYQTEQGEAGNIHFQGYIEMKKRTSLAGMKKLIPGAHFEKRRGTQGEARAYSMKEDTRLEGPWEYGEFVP
Description: as §1

[6] = tested on: T6, Rep nickase domain of maize striate mosaic virus
T6 sequence (residues 1-117, tag not shown): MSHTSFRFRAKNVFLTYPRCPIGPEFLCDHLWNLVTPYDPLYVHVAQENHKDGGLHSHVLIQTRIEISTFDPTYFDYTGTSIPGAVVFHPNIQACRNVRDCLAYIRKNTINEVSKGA
Description: as §1

[7] = tested on: T7, Rep nickase domain of porcine circovirus 2
T7 sequence (residues 2-116, tag not shown): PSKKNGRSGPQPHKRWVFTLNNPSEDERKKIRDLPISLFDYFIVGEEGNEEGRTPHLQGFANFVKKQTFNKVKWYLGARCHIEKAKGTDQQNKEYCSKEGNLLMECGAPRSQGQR
Description: as §1

[8] = tested on: T8, Rep nickase domain of tomato golden mosaic virus
T8 sequence (residues 1-124, tag not shown): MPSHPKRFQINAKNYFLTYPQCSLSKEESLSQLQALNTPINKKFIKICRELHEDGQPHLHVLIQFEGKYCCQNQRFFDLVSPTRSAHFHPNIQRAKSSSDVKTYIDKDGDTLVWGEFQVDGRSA
Description: as §1

[9] = tested on: T9, Rep nickase domain of tomato yellow leaf curl virus
T9 sequence (residues 1-136, tag not shown): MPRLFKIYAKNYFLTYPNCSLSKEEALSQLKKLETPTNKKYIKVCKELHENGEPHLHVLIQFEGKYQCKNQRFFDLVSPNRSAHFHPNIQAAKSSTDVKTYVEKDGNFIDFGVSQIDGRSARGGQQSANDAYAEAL
Description: as §1

[10] = tested on: T10, Rep nickase domain of wheat dwarf virus
T10 sequence (residues 1-137, tag not shown): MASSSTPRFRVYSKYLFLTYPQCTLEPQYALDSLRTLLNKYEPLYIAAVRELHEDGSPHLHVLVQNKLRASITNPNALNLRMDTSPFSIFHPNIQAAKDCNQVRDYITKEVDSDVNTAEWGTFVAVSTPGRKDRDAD
Description: as §1

| Sequence | uncleaved DNA left (log2) [1] | uncleaved DNA left (log2) [2] | uncleaved DNA left (log2) [3] | uncleaved DNA left (log2) [4] | uncleaved DNA left (log2) [5] | uncleaved DNA left (log2) [6] | uncleaved DNA left (log2) [7] | uncleaved DNA left (log2) [8] | uncleaved DNA left (log2) [9] | uncleaved DNA left (log2) [10] |
| --- | --- | --- | --- | --- | --- | --- | --- | --- | --- | --- |
| TCATGCA | -0.022 | 0.0861 | -0.656 | -0.958 | 0.093 | -1.25 | 0.0512 | -0.05 | 0.103 | 0.0766 |
| GATATTG | -0.000408 | -0.101 | -0.172 | 0.00158 | 0.0622 | -0.676 | 0.105 | -0.00635 | -0.0435 | -0.0564 |
| ATCACTG | -0.0438 | 0.0311 | -0.138 | 0.362 | -0.0361 | 0.527 | 0.0124 | 0.000131 | -0.0332 | 0.0485 |
| GGGACTT | 0.0778 | 0.105 | 1.02 | 2.18 | 0.0846 | 2.39 | 0.303 | 0.115 | -0.0739 | 0.255 |
| ACTTAAA | -0.133 | 0.0614 | -0.197 | -0.145 | -0.0595 | -0.805 | 0.0284 | -0.0381 | -0.194 | 0.00821 |
| ACCAGTA | 0.0398 | 0.129 | -0.297 | -1.15 | 0.0194 | -1.13 | 0.103 | 0.07 | -0.0242 | 0.0293 |
| GATCCCG | 0.013 | -0.0535 | -0.747 | -0.72 | -0.00329 | -0.968 | -0.171 | -0.082 | -0.106 | -0.131 |
